These results are taken from PubChem BioAssay AID1346428 (National Center for Advancing Translational Sciences (NCATS), 2018).

The structures appear in SMILES notation. “And” between values parts separate entries of the source, which are not always exact repeats. Identical values can stand only once. In all, about 48,000 compounds went through this assay and about 1,200 (2.5%) were called active. Another 2% or so got no clear call; they are omitted.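 The calls were made as follows: active = activation of at least 60% and not above a set upper limit (about 1 call in 100 departs from these limits); inconclusive = activation of 40% to 60%, or above that upper limit; inactive = activation under 40%.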 The list shows a part of the results.

The experiment has as its target Probable G-protein coupled receptor 32 (Homo sapiens) (UniProt O75388). The experiment in a line: qHTS for Agonists of Human Resolvin D1 Receptor DRV1. The following applies: CHO-K1 GPR32 beta-arrestin PathHunter luminescence, 90 min; at 76.9 µM; stronger effect = higher value; zero percent set by DMSO-only wells. In a few lines: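 Using DMSO wells as EC0, agonist-induced signal was taken as chemiluminescence from beta-Gal reconstituted upon beta-arrestin recruitment to GPR32 in CHO-K1 cells after 90 min compound treatment.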
UniProt O75388, sequence (O75388 whole entry, looked up): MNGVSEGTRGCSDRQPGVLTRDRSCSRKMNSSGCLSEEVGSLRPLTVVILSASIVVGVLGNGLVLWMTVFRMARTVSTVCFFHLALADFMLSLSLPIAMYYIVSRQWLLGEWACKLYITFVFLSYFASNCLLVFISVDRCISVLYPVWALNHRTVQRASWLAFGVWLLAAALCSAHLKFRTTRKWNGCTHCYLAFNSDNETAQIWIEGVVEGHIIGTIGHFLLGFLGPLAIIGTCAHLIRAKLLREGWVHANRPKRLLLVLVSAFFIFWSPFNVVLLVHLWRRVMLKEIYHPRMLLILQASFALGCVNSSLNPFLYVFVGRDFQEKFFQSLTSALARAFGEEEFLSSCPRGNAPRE
In general terms: qHTS replaces the single test concentration by a dilution series.
Regarding `Oc1ccc(NCc2ccccc2OCc2ccccc2F)cc1`, the activation is inactive: -30.7%.

In the case of `CCOc1ccc(OCC)c(NC(=O)C2CCN(c3nnc(-n4cccc4)s3)CC2)c1`, the activation was inactive: 0.204%.

Consider `COc1ccccc1NC(=O)CCN1CCCCC1`, for which the activation was inactive: -2.82%.

As for `Cc1c(Cl)cccc1NC(=O)c1ccc2snnc2c1`, the activation is inactive: -29.8%.

Consider `CCOC(=O)c1c(C)[nH]c(CCC(=O)NCc2ccccc2Cl)c1C`, for which the activation was inactive: -8.69%.

`Cc1nc(-c2ccccc2)sc1CCNC(=O)C(=O)Nc1ccc2c(c1)OCO2`: the activation is inactive: 23.4%.

As for `COc1ccc(NC(=O)CCCN2C(=O)CCn3nc(-c4cn(C)c5ccccc45)cc32)cc1OC`, the activation is inactive: 17.2%.

Turning to `O=P(O)(O)OCC(O)CO` (centres undefined), the activation was inactive: 2.57%.

Regarding `Cc1ccc(N(C)C(=O)C2CCN(S(=O)(=O)c3c(C)noc3/C=C/c3c(C)cc(C)cc3C)CC2)cc1`, the activation was inactive: -14.2%.

Take `COc1cccc(OCCSc2nc(C)c(Cc3ccccc3)c(=O)[nH]2)c1`: the activation was inactive: -21.4%.

Regarding `Cc1cccc(C(=O)NCC(=O)OCc2cc(=O)n3nc(C4CCCCC4)sc3n2)c1`, the activation is inactive: 1.25%.

On to `CCOC(=O)c1cccc(NC(=O)CC2C(=O)N(c3ccc(OC)cc3)C(=O)N2C2CCCC2)c1` (centres undefined), for which the activation is inactive: -30.7%.

As to `Cc1cccc(N2CCN(S(=O)(=O)c3ccc4[nH]c5c(c4c3)CCCCC5)CC2)c1C`, the activation was inactive: -2.49%.

As for `COc1cccc(NC(=O)C2=C(C)C(=O)OC23CCN(C(C)=O)CC3)c1`, the activation is inactive: -12.3%.

Take `COc1ccccc1C(=O)Nc1cc2c(cc1N1CCCC1)n(C)c(=O)c(=O)n2C`: the activation is inactive: 0.866%.

Take `COC(=O)CN1C(=O)CSc2ccc(S(=O)(=O)Nc3cccc(C)c3C)cc21`: the activation is inactive: 22.6%.

For `Cc1ccc(CN2CCSc3ccc(C(=O)NCC(C)c4ccccc4)cc32)cc1` (centres undefined), the activation is inactive: -23.7%.

As to `CCN(CC)C(=O)Cn1nnc2sc(-c3ccccc3)cc2c1=O`, the activation is inactive: 28.6%.

In the case of `CCC(=O)N1c2ccc(S(=O)(=O)NCc3ccc(F)cc3)cc2CC1C` (centres undefined), the activation was inactive: 13.2%.

In the case of `COc1cc2c(cc1OC)C(COc1ccc3c(C)cc(=O)oc3c1)N(C(=O)c1cc(Cl)ccc1OC)CC2` (centres undefined), the activation was inactive: -10.3%.

For `Cc1oc2ccc(O)c(CN(C)Cc3ccccc3)c2c1C(=O)Nc1cccc(Cl)c1C`, the activation was inactive: -25.6%.

On to `CCCCn1c2ccccc2c2nnc(SCC(=O)Nc3ccc(NC(C)=O)cc3)nc21`, for which the activation was inactive: -2.89%.

`Cc1ccccc1NC(=O)c1c2c(nc3ccccc13)C(=O)N(C1CCCCC1)C2`: the activation was inactive: -8.58%.

Take `O=C(Nc1onc2c1CCCC2)c1ccc(Cl)cc1`: the activation is inactive: 34.3%.

With `CCc1nc2nc(C)cc(Nc3ccc(Br)cc3F)n2n1`, the activation is inactive: 1.35%.

Consider `COc1cc2nc(N3CCN(C(=O)C4CCCO4)CC3)nc(N)c2cc1OC` (centres undefined), for which the activation was inactive: 10.8% and inactive: 2.8%.

Take `COc1ccccc1-c1cc(C(F)(F)F)nc(S(=O)(=O)CCCC(=O)Nc2cc(C)ccc2O)n1`: the activation is inactive: 26%.

As to `COC(=O)c1cc(S(=O)(=O)N2CCN(c3cccc(C)c3)C(C)C2)c[nH]1` (centres undefined), the activation was inactive: -4.98%.

As to `CC(=O)Nc1ccc(S(=O)(=O)Nc2ccc(-c3cn4c(C)csc4n3)cc2)cc1`, the activation was inactive: -2.21%.

As for `CCc1c(C)sc(NC(=O)c2cc(-c3ccc(OC)cc3)on2)c1C#N`, the activation is inactive: -4.03%.

On to `Cc1ccc2c(=O)c(C(=O)c3ccc(F)cc3)cn(CC(=O)NC3CCCCC3)c2n1`, for which the activation is inactive: 4.46%.

Take `CCOc1ccc(CNC(=O)c2cc3c(=O)n(Cc4cccs4)ccc3nc2C)cc1`: the activation was inactive: -30.6%.

Take `COc1cccc(CNC(=O)c2cc3n(n2)CCCN(Cc2ccc(C)cc2)C3=O)c1OC`: the activation was inactive: -7.79%.

As for `COc1ccc2c(Sc3ccccc3)c(C(=O)NCc3ccc(OC(C)C)cc3)[nH]c2c1`, the activation was inactive: -10.9%.

As for `Cc1cccc(-c2nnc3n(CCc4ccccc4)c(=O)c4ccccc4n23)c1`, the activation was inactive: -5.52%.

Turning to `CCOc1ccc(-n2c(SCC(=O)NCc3ccco3)nc3c([nH]c4ccccc43)c2=O)cc1`, the activation was inactive: -6.73%.

As to `Oc1ccc(O)cc1`, the activation is inactive: 12.8% and inactive: 2.42%.

On to `Cc1ccc(Cn2ccnc2SCC(=O)Nc2ccc3c(c2)OCO3)cc1`, for which the activation was inactive: 6.19%.

Take `Cc1ccc(C)c(NC(=O)N2CCN(C)c3ncccc32)c1`: the activation was inactive: 9.95%.

On to `Cc1ccc(-n2c3nc(=O)[nH]c(=O)c-3cc3c(Cl)cccc32)cc1`, for which the activation is inactive: 16%.

On to `Cc1ccc(NC(=O)c2sc(-n3nc(C)c(Cc4ccc(Cl)cc4)c3C)nc2C)cc1`, for which the activation was inactive: 15.2%.

As to `CCOc1ccc(CNC(=O)c2ccc(-c3nc(CSc4ccc(C)cc4)c(C)o3)cc2)cc1`, the activation was inactive: -4.58%.

Regarding `COc1ccc(Cl)cc1NC(=O)Cn1c(=O)n(Cc2ccco2)c(=O)c2ccc(C(=O)NC3CCCC3)cc21`, the activation is inactive: 41.7%.

Turning to `CCOc1ccc(NC(=O)c2c(NC(=O)Cc3ccccc3)sc3c2CCCC3)cc1`, the activation was inactive: -6.51%.

For `CCN(Cc1ccccc1)C(=O)Cn1c(=O)n(-c2ccc(OC)cc2OC)c(=O)c2c(C)c(C)sc21`, the activation was inactive: -3.91%.

Regarding `O=C1c2[nH]nc(-c3ccccc3)c2C(c2ccccc2)N1c1cccc(C(F)(F)F)c1` (centres undefined), the activation is inactive: 33.6%.

As for `CCCc1cc(=O)n2[nH]c(NCc3ccc(CC)cc3)nc2n1`, the activation is inactive: 41.6%.

As for `O=C1SC(Nc2ccc(Cl)cc2)C(=O)N1Cc1ccccc1` (centres undefined), the activation was inactive: -78.7%.

Consider `Cc1ccc(NC(=O)CCCn2c3ccccc3c(=O)c3cc(C)ccc32)c(Br)c1`, for which the activation was inactive: -4.68%.

As for `CC1CCN(S(=O)(=O)c2ccc3c(c2)N(CC(=O)NCCc2ccc(Cl)cc2)C(=O)CO3)CC1`, the activation was inactive: -4.52%.

With `CCOC(=O)c1c(C)[nH]c(C)c1S(=O)(=O)N1CCC(C(=O)N2CCN(c3cc(C)ccc3C)CC2)CC1`, the activation was inactive: -0.0117%.

On to `Cc1ccc2oc(C(=O)Nc3ccc(S(=O)(=O)Nc4onc(C)c4C)cc3)cc(=O)c2c1`, for which the activation was inactive: 15%.

In the case of `O=C1CS(=O)(=O)C2(C(=O)N(Cc3ccc(F)cc3)c3ccccc32)N1c1cccc(C(F)(F)F)c1` (centres undefined), the activation was inactive: -4.57%.

For `Cc1c(Cl)cccc1Nc1nc(N)nc(CSc2nc3ccccc3s2)n1`, the activation is inactive: 11.8%.

`COc1cccc(C(=O)NCC(=O)OCc2cc(=O)n3nc(C)sc3n2)c1`: the activation is inactive: -6.16%.

Consider `O=C(CSc1ncc(S(=O)(=O)c2ccc(Cl)cc2)c(=O)[nH]1)Nc1ccc2c(c1)OCCO2`, for which the activation is inactive: -5.22%.

`CCCCCC(N)=O`: the activation is inactive: 13%.

Regarding `CCCCNC(=O)C1=CC(c2ccc3c(c2)OCO3)=NS(=O)(=O)N1C`, the activation was inactive: -9.09%.

`CCOc1ccc(N(C)C(=O)C2CCN(S(=O)(=O)c3ccc4c(c3)CCCN4C(C)=O)CC2)cc1`: the activation was inactive: 1.66%.

`CCC(Sc1nc2ccncc2[nH]1)C(=O)Nc1ccc(F)cc1` (centres undefined): the activation was inactive: -2.68%.

Regarding `C[C@H]1C[C@H]2[C@@H]3CCC4=CC(=O)C=C[C@]4(C)[C@@]3(Cl)[C@@H](O)C[C@]2(C)[C@@]1(O)C(=O)CO`, the activation is inactive: -0.777%.

As to `O=S(=O)(c1ccccc1)c1nnn2c1nc(Nc1ccccc1)c1cc(Cl)ccc12`, the activation was inactive: 0.0332%.

On to `Cc1ccc(Cl)cc1N1CCN(C(=O)Cn2ncc3c([nH]c4ccccc43)c2=O)CC1`, for which the activation is inactive: 3.24%.

Take `COc1cccc(-n2c(=O)c3sc4ccccc4c3n(CC(=O)Nc3ccccc3OC)c2=O)c1`: the activation was inactive: -11%.

Take `Cc1ccc(-n2nc(CO)c(C(=O)NCCc3ccccc3)n2)cc1`: the activation is inactive: -10.2%.

For `O=C(CSc1nnc(-c2ccc(Cl)cc2)o1)N1CCc2ccccc21`, the activation is inactive: 4.26%.

`Cc1ccc(Cn2cnc3c(oc4ccccc43)c2=O)cc1`: the activation was inactive: -10.7%.

On to `Cc1cc(C)cc(NC(=O)C(NS(=O)(=O)c2cccc3nsnc23)c2ccccc2)c1` (centres undefined), for which the activation was inactive: -34%.

As for `COc1ccc(CCNC(=O)CCc2cn(Cc3ccc(C)cc3)c3ccccc23)cc1OC`, the activation is inactive: -27.6%.

For the compound `CCCCOc1nnc(-c2ccc(OCC)cc2)c2ccccc12`, the activation is inactive: 3.69%.

With `CCOC(=O)N1CCN(C(=O)c2ccc3c(c2)N(Cc2cc(C)ccc2C)C(=O)c2ccccc2S3=O)CC1` (centres undefined), the activation is inactive: -12.2%.

Consider `Cc1nc(N=Nc2ccc(C(=O)O)cc2)c(COP(=O)(O)O)c(C=O)c1O`, for which the activation was inactive: -4.28%.

Regarding `CCc1ccc(NC(=O)Cn2ccn(Cc3ccccc3OC)c(=O)c2=O)cc1`, the activation is inactive: -14.2%.

For `O=C(O)c1ccccc1NCCc1ccccc1`, the activation is inactive: -34.4%.

As to `COc1cccc(-c2ccc3c(N)c(C(=O)c4ccc(Br)cc4)sc3n2)c1`, the activation was inactive: -8.81%.

Consider `O=C(Cc1ccc(Cl)cc1)Nc1nnc2n1CCS2`, for which the activation is inactive: -11.4%.

For the compound `COc1ccc(C)cc1NC(=O)CCc1c(C)nn(-c2ccc(N3CCOCC3)nn2)c1C`, the activation was inactive: -7.98%.

Turning to `CCn1cc(S(=O)(=O)c2cccc(Cl)c2)c(=O)c2cc(F)c(N3CCC(C)CC3)cc21`, the activation was inactive: -5.58%.

As to `Cc1ccc(NC(=O)c2c(C)oc3ncnc(N4CCCCC4)c23)cc1Cl`, the activation was inactive: 3.98%.

On to `Cc1ccc(-n2nc(C)c3c(C)cc(=O)n(CC(=O)N4CCCc5ccccc54)c32)cc1`, for which the activation was inactive: 16.2%.

As for `O=C(COCc1cc(-c2cccs2)on1)NCc1ccc(Cl)cc1`, the activation was inactive: -0.376%.

Consider `COc1ccc(NC(=O)C(=O)NCC2(c3ccc(OC)c(OC)c3)CCCC2)cc1`, for which the activation is inactive: -1.07%.

Turning to `Cc1cc(C)c(NS(=O)(=O)c2ccc(-c3cnc(C4CC4)o3)cc2)c(C)c1`, the activation is inactive: 22.2%.

Consider `COc1cccc(CNC(=O)Cc2csc3ccccc23)c1OC`, for which the activation was inactive: -12.2%.
